In all, about 150,000 compounds went through this assay and about 540 (0.36%) showed an effect of 50% or more. The list shows a part of the results.
tested on: Plasmodium falciparum; assay: Primary screen in NF54 nanoGlo assay, in single point, at 2uM, 72h; a lower Z score goes with more inhibition; assay type: functional, Erythrocyte; settings: timepoint 72 hour

SMILES | % Inhibition [%] | Z score
CC(C)NC(=O)Cc1cccc(N(Cc2ccc(F)cc2)C(=O)NC(C)C)c1 | -13 | 1.21
Cc1cc(C(=O)N[C@H]2CC[C@H](Oc3ccccn3)CC2)c(C)o1 | -12 | 1.41
Cc1cc(C)c(C(=O)CC2(C(F)(F)C(F)F)NCCN2)c(=O)[nH]1 | 9 | -1.17
Cc1csc(-c2noc(Cn3ncn(C)c3=O)n2)n1 | -6 | 0.81
CCC(=O)N1CC[C@@]2(CCCN(Cc3cccc(F)c3F)C2=O)C1 | -14 | 2.15
CC(C)N1CCN2C(=O)c3ccccc3OCC[C@@H]3CC[C@@H](NS(C)(=O)=O)[C@@H](CNC(=O)[C@@H]2C1)O3 | -12 | 1.5
COc1cccc(C(=O)Nc2ccc(N3CCN(C(=O)C4CCCC4)CC3)c(C(=O)N(C)Cc3ccccc3)c2)c1 | 19 | -2.38
O=C(NCC1COCCO1)c1cn(CC(O)c2cccs2)nn1 (centres undefined) | 4 | -0.72
CNc1snc(C)c1C(=O)N1CCN(c2cccc(Cl)c2)CC1 | -15 | 1.8
COc1ccc(C(=O)N2CCC3(CC2)OC[C@@H](C(=O)NCc2ccccn2)N3C(=O)c2ccccc2C)cc1OC | -8 | 0.84
Cc1nn(CCOc2ccccc2)c(=O)n1-c1ccc(C(C)C)cc1 | 34 | -1.48
CCOc1ccc(CCN2C(=O)CC[C@@]2(C)C(=O)NC2CCCCCCC2)cc1OCC | 0 | -0.03
Cc1ccc(F)cc1C(=O)N1CC[C@@](O)(C2CCOCC2)[C@H](C)C1 | -10 | 1.77
O=C1NCCCCCCN(Cc2ccncc2)[C@@H]2CN(S(=O)(=O)c3ccc4c(c3)CCC4)CC[C@H]12 | 0 | 0.06
Cc1cn2cc(C(=O)N[C@@H](C)c3nc(-c4ccncc4)no3)ccc2n1 | -3 | 0.59
Cc1csc(C(NC(=O)C2CC3C=CC2C3)C2CC2)n1 (centres undefined) | 5 | -0.47
C[C@@H](c1cccnc1)N(C)CC(=O)Nc1ccn(C)n1 | -11 | 1.89
O=C(Nc1cccnn1)N[C@@H](C1CCCC1)C(F)(F)F | -6 | 0.57
COCC[C@H](C)NC(=O)NCc1sc(C)nc1C | -12 | 2.31
Cc1nccn1C1(C(=O)O)CCN(C(=O)NCc2cccs2)CC1 | 12 | -1.53
Cc1[nH]nc(NC(=O)c2cccnc2O)c1-c1ccc2c(c1)OCO2 | -10 | 1.35
COc1ccc(CN2Cc3cc(NC(=O)Nc4ccccc4)ccc3O[C@@H](C)C2=O)c(OC)c1 | -9 | 0.91

Reference: ChEMBL document CHEMBL4888484, “Replenishing the malaria drug discovery pipeline: Screening and hit evaluation of the MMV Hit Generation Library 1 (HGL1) against asexual blood stage Plasmodium falciparum ,using a nano luciferase reporter read-out” (2022)
